# Data from PubChem BioAssay (NCATS).
# Several values for one entry are separate records, joined by “and”; a condition that tells them apart may be missing. Equal entries are not always repeated. Inconclusive means that the source gave no clear call. Such entries were picked first, then a sample of the others. Potencies beside an inconclusive call are fits to weak or partial responses and may not hold up. A structure can be active in one record and inactive in another. Activity calls are given as the source filed them. Calls follow the shape of the dose curve; as a rule, active = well fitted curve in the direction sought with a large enough effect; inconclusive = small, poorly fitted or top-dose-only effect, or another doubt; inactive = no such curve, though single readings can be large; an effect the other way counts as inactive or inconclusive.
# Legend:
# [1] = molecular target: Cellular tumor antigen p53 (Homo sapiens) (UniProt P04637); assay: Primary qHTS for small molecule compounds that upregulate eGFP-tagged delta133p53alpha (in N-terminal) cells. (AID 2060322); conditions: NCI-H358 eGFP-delta133p53alpha fluorescence, 24 h; activation: stronger effect = higher value;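 also: cells pre-induced with doxycycline then dosed without doxycycline; nearly all actives have a fitted effect of over 75% in size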;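 as to activation: 0% = DMSO vehicle and 100% = reference activator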
# Sequence of UniProt P04637 (P04637 whole entry, looked up): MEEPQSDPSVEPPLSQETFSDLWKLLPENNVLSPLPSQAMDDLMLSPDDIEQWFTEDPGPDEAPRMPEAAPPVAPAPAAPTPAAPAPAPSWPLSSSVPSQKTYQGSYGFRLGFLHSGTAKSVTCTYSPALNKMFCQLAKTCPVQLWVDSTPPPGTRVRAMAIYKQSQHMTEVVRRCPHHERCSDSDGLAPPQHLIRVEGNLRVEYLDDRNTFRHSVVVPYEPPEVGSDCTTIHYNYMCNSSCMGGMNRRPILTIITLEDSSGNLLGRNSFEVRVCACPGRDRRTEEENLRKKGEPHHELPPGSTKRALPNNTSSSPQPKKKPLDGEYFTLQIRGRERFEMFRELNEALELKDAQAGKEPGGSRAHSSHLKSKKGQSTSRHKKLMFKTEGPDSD
# How it was run: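 NCI-H358 cells pre-induced 24 h with 10 ng/ml doxycycline for eGFP-delta133p53alpha, plated dox-free and exposed 24 h at 37C to titrated compounds. Fixed, Hoechst-stained; gated GFP peak intensity by laser scanning cytometry, normalized to DMSO (0%) and 57.5 uM 5-azacytidine (100%).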
# [2] = BET inhibitor-based combinations targeting novel dependencies in MECOM-rearranged (r) AML: OCI-AML3 cell line (AID 2202232); conditions: CellTiter-Glo luminescence, 48 h; Potency: OCI-AML3 viability; viability (% of control): at 46 µM (top of the series); also: nearly all actives have a fitted effect of over 35% in size;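 as to viability (% of control): plate controls were DMSO vehicle wells for no effect and wells without cells for full effect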
# How it was run: (§1)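 Here, 11-point titrations of each agent were applied to 500 seeded cells and incubated 48 hr; CellTiter-Glo signal, scaled against DMSO and empty wells, was integrated as AUC, then Z-scored within the individual line.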
# [3] = BET inhibitor-based combinations targeting novel dependencies in MECOM-rearranged (r) AML: HNT-34 cell line (AID 2202234); also: nearly all actives have a fitted effect of over 35% in size;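 as to viability (% of control): plate controls were vehicle wells for no effect and cell-free wells for full effect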
# How it was run: (§2)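 Normalized to DMSO and empty-well controls, the luminescence data from CellTiter-Glo after 48 hr drug exposure were fitted across 11 concentrations. Reported metrics are area under the dose-response curve and its Z-transformed form.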
# [4] = BET inhibitor-based combinations targeting novel dependencies in MECOM-rearranged (r) AML: UCSD-AML1 cell line (AID 2202235); conditions: UCSD-AML1 AML cells viability, CellTiter-Glo, 48 h; viability (% of control): at 46 µM (top of the series); also: nearly all actives have a fitted effect of over 40% in size;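 as to viability (% of control): plate controls were DMSO vehicle wells for no effect and blank wells for full effect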
# How it was run: as §2
# [5] = BET inhibitor-based combinations targeting novel dependencies in MECOM-rearranged (r) AML: MV-4-11 cell line (AID 2202233); conditions: MV-4-11 AML viability, CellTiter-Glo luminescence, 48 h; viability, % of control: at 46 µM (top of the series) unless noted; also: nearly all actives have a fitted effect of over 45% in size;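 as to viability, % of control: plate controls were DMSO for no effect and blank wells for full effect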
# How it was run: as §2
# [6] = BET inhibitor-based combinations targeting novel dependencies in MECOM-rearranged (r) AML: AML-194 cell line (AID 2202237; also: nearly all actives have a fitted effect of over 40% in size;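 as to viability (% of control): plate controls were vehicle wells for no effect and wells without cells for full effect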)
# How it was run: as §1
# [7] = BET inhibitor-based combinations targeting novel dependencies in MECOM-rearranged (r) AML: AML-191 cell line (AID 2202236; also: nearly all actives have a fitted effect of over 35% in size;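 as to viability (% of control): plate controls were vehicle wells for no effect and wells without cells for full effect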)
# How it was run: as §1
# Potency is read from the fitted curve at half-maximal effect; tags tell the direction and shape of the fitted curve.
smiles,measurement,setting,value
CC(C)(C(=O)NCC(F)(F)C(F)(F)F)C(=O)N[C@@H]1C(=O)Nc2ccccc2-c2ccccc21,activation,[1],inconclusive: 33% [activator]
same,Potency,[2],"inconclusive: 10.5 µM [inhibitor, single point]"
same,Potency,[3],inactive
same,Potency,[4],inactive
C#CCN(C)CC1=Cc2ccccc2Oc2ccccc21,Potency,[1],"inconclusive: 30.6 µM [activator, partial curve, poor fit]"
same,Potency,[2],inactive
same,Potency,[5],"inconclusive: 7.42 µM [inhibitor, partial curve, poor fit]"
same,Potency,[6],inactive
Cc1cnc(Nc2cccc(CN3CCOCC3)c2)nc1Nc1cccc(S(=O)(=O)NC(C)(C)C)c1,Potency,[1],"inconclusive: 5.36 µM [activator, partial curve]"
same,Potency,[2],"inconclusive: 3.32 µM [inhibitor, full curve, poor fit]"
same,Potency,[3],active: 1.66 µM
O=c1[nH]cc(F)c(=O)[nH]1,Potency,[1],"inconclusive: 0.0076 µM [activator, full curve]"
same,Potency,[2],"inconclusive: 5.9 µM [inhibitor, full curve]"
same,Potency,[3],"inconclusive: 18.6 µM [inhibitor, partial curve]"
same,Potency,[4],"inconclusive: 14.8 µM [inhibitor, partial curve]"
same,Potency,[7],"inconclusive: 20.9 µM [inhibitor, partial curve]"
same,Potency,[6],"inconclusive: 20.9 µM [inhibitor, single point]"
O=C(O)/C=C/c1ccc(Cn2ccnc2)cc1,activation,[1],inconclusive: -26.6% [activator]
same,Potency,[2],"inconclusive: 0.0012 µM [inhibitor, full curve, poor fit]"
same,Potency,[5],inactive
same,Potency,[7],inactive
same,Potency,[6],inactive
CCc1cc2c(cc1N1CCC(N3CCOCC3)CC1)C(C)(C)c1[nH]c3cc(C#N)ccc3c1C2=O,Potency,[1],"inconclusive: 13.1 µM [activator, partial curve]"
same,Potency,[2],"inconclusive: 5.74 µM [inhibitor, single point]"
same,Potency,[5],"inconclusive: 1.02 µM [inhibitor, full curve]"
same,Potency,[3],"inconclusive: 9.1 µM [inhibitor, partial curve]"
same,Potency,[7],"inconclusive: 2.57 µM [inhibitor, partial curve]"
same,Potency,[6],"inconclusive: 8.11 µM [inhibitor, single point]"
CN(C)CCc1c[nH]c2ccc(CS(=O)(=O)N3CCCC3)cc12,Potency,[1],"inconclusive: 11 µM [activator, partial curve, poor fit]"
same,Potency,[2],inactive
same,Potency,[3],inactive
O=C1c2cccc(O)c2C(=O)c2c(O)cc(CO)cc21,activation,[1],inactive: -5.26%
same,Potency,[2],inactive
same,Potency,[5],"inconclusive: 10.5 µM [inhibitor, partial curve, poor fit]"
same,Potency,[3],inactive
same,Potency,[7],inactive
CC(=O)SC[C@@H](C)C(=O)N1CCC[C@H]1C(=O)N[C@@H](Cc1ccccc1)C(=O)O,activation,[1],inactive: -26.8%
same,Potency,[2],inactive
same,Potency,[5],inactive
same,Potency,[3],inactive
same,Potency,[7],inactive
NCCc1ccc(O)c(O)c1,Potency,[1],"inconclusive: 19.5 µM [activator, single point]"
same,Potency,[2],"inconclusive: 0.0042 µM [inhibitor, full curve, poor fit]"
same,Potency,[3],"inconclusive: 11.8 µM [inhibitor, partial curve, poor fit]"
COc1ncnc(NS(=O)(=O)c2ccc(N)cc2)c1OC,Potency,[1],active: 27.3 µM
same,Potency,[2],inactive
same,Potency,[3],inactive
CN(C)c1ccc(C(=C2C=CC(=[N+](C)C)C=C2)c2ccc(N(C)C)cc2)cc1,Potency,[1],"inconclusive: 43.2 µM [activator, single point]"
same,Potency,[2],active: 1.32 µM
same,Potency,[3],active: 0.934 µM
CCOc1cc2ncc(C#N)c(Nc3ccc(OCc4ccccn4)c(Cl)c3)c2cc1NC(=O)/C=C/CN(C)C,Potency,[1],active: 9.28 µM
same,Potency,[2],active: 5.9 µM
same,Potency,[3],active: 1.32 µM
CCn1c(N)c(C(=O)NC)c(=O)c2ccc(C#CC(C)(O)COC)nc21 (configuration not stated),Potency,[1],"inconclusive: 23.9 µM [activator, single point]"
same,Potency,[2],"inconclusive: 6.61 µM [inhibitor, partial curve]"
same,Potency,[3],"inconclusive: 37.2 µM [inhibitor, partial curve, poor fit]"
N#Cc1c(C2CCNCC2)cc(-c2c(O)cccc2OCC2CC2)nc1N,Potency,[1],"inconclusive: 37.9 µM [activator, partial curve, poor fit]"
same,Potency,[2],"inconclusive: 26.3 µM [inhibitor, partial curve, poor fit]"
same,Potency,[5],"inconclusive: 8.33 µM [inhibitor, full curve, poor fit]"
same,Potency,[6],active: 16.6 µM
CC[C@H](C)C(=O)O[C@H]1C[C@@H](C)C=C2C=C[C@H](C)[C@H](CC[C@@H]3C[C@@H](O)CC(=O)O3)[C@H]21,activation,[1],inactive: -14.1% and inactive: 11.5% and inactive: 5.34%
same,Potency,[2],"inconclusive: 9.34 µM [inhibitor, partial curve]"
same,Potency,[3],active: 5.9 µM
same,Potency,[4],active: 9.34 µM
same,Potency,[7],active: 10.5 µM
COc1ccc(COc2cc3oc(=O)c4cc(C(C)O)ccc4c3cc2OC)cc1 (configuration not stated),activation,[1],inactive: 0.91%
same,Potency,[2],active: 14.8 µM
same,Potency,[3],"inconclusive: 20.9 µM [inhibitor, partial curve]"
same,Potency,[4],"inconclusive: 23.5 µM [inhibitor, partial curve]"
same,Potency,[6],"inconclusive: 16.6 µM [inhibitor, partial curve]"
CCn1c(-c2nonc2N)nc2c(C#CC(C)(C)O)ncc(OC[C@H]3CCCNC3)c21,activation,[1],inactive: -17.2%
same,Potency,[2],"inconclusive: 6.61 µM [inhibitor, partial curve, poor fit]"
same,Potency,[3],active: 16.6 µM
same,Potency,[4],"inconclusive: 20.9 µM [inhibitor, partial curve]"
same,Potency,[7],"inconclusive: 33.2 µM [inhibitor, single point]"
same,Potency,[6],active: 20.9 µM
O=C(Nc1nc2cccc(-c3ccc(CN4CCS(=O)(=O)CC4)cc3)n2n1)C1CC1,Potency,[1],active: 43.2 µM and active: 34.3 µM
same,Potency,[2],active: 14.8 µM
same,Potency,[3],active: 14.8 µM
CC1(O)CC(c2nc(-c3ccc4ccc(-c5ccccc5)nc4c3)c3c(N)nccn23)C1 (configuration not stated),Potency,[1],active: 24.3 µM
same,Potency,[2],inactive
same,Potency,[3],"inconclusive: 16.6 µM [inhibitor, partial curve]"
same,Potency,[4],"inconclusive: 4.17 µM [inhibitor, partial curve, poor fit]"
same,Potency,[6],inactive
COC(=O)N(C)c1c(N)nc(-c2nn(Cc3ccccc3F)c3ncccc23)nc1N,activation,[1],inactive: -15.8%
same,Potency,[2],inactive
same,Potency,[3],"inconclusive: 23.5 µM [inhibitor, single point]"
same,Potency,[4],"inconclusive: 33.2 µM [inhibitor, single point]"
same,Potency,[7],inactive
N#Cc1cc(NC(=O)Nc2nnc(-c3ccncc3)s2)ccc1-c1cn[nH]c1,activation,[1],inactive: -26.3%
same,Potency,[2],inactive
same,Potency,[3],inactive
same,Potency,[4],inactive
N#CC1(c2cccc(C(=O)Nc3cc(Oc4ccc5nc(NC(=O)C6CC6)sc5n4)ccc3F)c2Cl)CC1,Potency,[1],"inconclusive: 3.79 µM [activator, partial curve, poor fit]"
same,Potency,[2],"inconclusive: 0.0332 µM [inhibitor, full curve, poor fit]"
same,Potency,[5],"inconclusive: 3.72 µM [inhibitor, full curve, poor fit]"
same,Potency,[3],"inconclusive: 0.0468 µM [inhibitor, full curve, poor fit]"
same,Potency,[4],inactive
same,Potency,[7],"inconclusive: 1.86 µM [inhibitor, partial curve, poor fit]"
same,Potency,[6],inactive
CCC(C)(C)c1ccc(CC(C)CN2C[C@@H](C)O[C@@H](C)C2)cc1 (some centres not stated),Potency,[1],"inconclusive: 9.68 µM [activator, partial curve, poor fit]"
same,Potency,[2],inactive
same,"viability, % of control",[5],inconclusive: 72.7% [inhibitor]
same,Potency,[3],inactive
same,Potency,[4],inactive
same,Potency,[7],"inconclusive: 23.5 µM [inhibitor, single point]"
same,Potency,[6],inactive
OCCNC1CCCc2c1[nH]c1ccc(-c3ccccc3)cc21 (configuration not stated),Potency,[1],"inconclusive: 21.7 µM [activator, single point] and inconclusive: 23.9 µM [activator, single point]"
same,Potency,[2],active: 16.6 µM
same,Potency,[4],"inconclusive: 11.8 µM [inhibitor, single point]"
same,Potency,[7],active: 16.6 µM
same,Potency,[6],active: 13.2 µM
NC(=O)c1ccccc1Nc1ccnc(Nc2cccc(O)c2)n1,Potency,[1],active: 30.1 µM
same,Potency,[2],active: 18.6 µM
same,Potency,[3],"inconclusive: 0.417 µM [inhibitor, full curve]"
same,Potency,[7],active: 5.25 µM
same,Potency,[6],"inconclusive: 1.66 µM [inhibitor, full curve]"
CN(C)Cc1cccc(N=C(c2ccccc2)c2c(O)[nH]c3cc(C(=O)N(C)C)ccc23)c1,Potency,[1],"inconclusive: 43.2 µM [activator, single point]"
same,Potency,[2],"inconclusive: 10.5 µM [inhibitor, partial curve]"
same,Potency,[4],"inconclusive: 18.6 µM [inhibitor, partial curve]"
same,Potency,[7],"inconclusive: 13.2 µM [inhibitor, partial curve]"
same,Potency,[6],"inconclusive: 16.6 µM [inhibitor, partial curve]"
O=C(NCC1CCCCN1)c1cc(OCC(F)(F)F)ccc1OCC(F)(F)F (configuration not stated),Potency,[1],active: 27.3 µM
same,Potency,[2],"inconclusive: 29.5 µM [inhibitor, partial curve, poor fit]"
same,Potency,[4],"inconclusive: 29.5 µM [inhibitor, single point]"
same,Potency,[7],inactive
O=C1C(Cl)=C(NCCN2CCOCC2)C(=O)c2ncccc21,Potency,[1],active: 27.3 µM
same,Potency,[2],active: 3.72 µM
same,Potency,[6],active: 7.42 µM
CN(C)c1ccc2nc3ccc(=[N+](C)C)cc-3sc2c1,Potency,[1],"inconclusive: 30.6 µM [activator, single point] and active: 17.4 µM"
same,Potency,[2],active: 5.25 µM
same,Potency,[6],active: 4.68 µM
